From PubChem BioAssay (NCATS) come the findings set out here.

The structures appear in SMILES notation. Where “and” joins values, the source holds several entries; their conditions need not be identical. Equal values may be shown once. The list shows a part of the results. Further columns of the screen follow, without active or inactive calls. The note in brackets gives the kind of curve behind each potency; many fits are weak.
Tags tell the direction and shape of the fitted curve.

A short description of the first experiment: qHTS drug screen for cell cycle checkpoint inhibitors in PARPi-resistant BRCA-mutant ovarian cancer cell lines. (AID 1963452). The settings on record: PEO1/OlaR viability, CellTiter-Glo luminescence, 96 h; measured here: PEO1 parental viability. The text has this:
Women's Malignancies Branch, Center for Cancer Research (CCR),
National Cancer Institute (NCI), National Institutes of Health (NIH), Bethesda, MD
Poly (ADP-ribose) polymerase inhibitors (PARPis) have changed the treatment paradigm in breast cancer gene (BRCA) - mutant high-grade serous ovarian carcinoma (HGSC). However, most patients eventually develop resistance to PARPis, highlighting an unmet need for improved therapeutic strategies. Using high-throughput drug screens, we identified ataxia telangiectasia and rad3-related protein/checkpoint kinase 1 (CHK1) pathway inhibitors as cytotoxic and further validated the activity of the CHK1 inhibitor (CHK1i) prexasertib in PARPi-sensitive and -resistant BRCA-mutant HGSC cells and xenograft mouse models. CHK1i monotherapy induced DNA damage, apoptosis, and tumor size reduction. We then conducted a phase 2 study (NCT02203513) of prexasertib in patients with BRCA-mutant HGSC. The treatment was well tolerated but yielded an objective response rate of 6% (1 of 17; one partial response) in patients with previous PARPi treatment. […] BRCA reversion mutation in previously PARPi-treated BRCA-mutant patients was not associated with resistance to CHK1i.
Among others, 1082 oncology drugs, both approved and investigational, were prioritized based on their status in clinical trial development. […] Drugs with average Z-AUC values less than -1.0 in all three cell lines were classified as "hits" resulting in 151 oncology drug hits. The screen also confirmed cross-resistance between olaparib and other PARPis (rucaparib, niraparib, and talazoparib) in PARPi-resistant PEO1/OlaR and PEO4.
[1] G. L. Lin, K. M. Wilson, M. Ceribelli, B. Z. Stanton, P. J. Woo, S. Kreimer, E. Y. Qin, X. Zhang, J. Lennon, S. Nagaraja, P. J. Morris, M. Quezada, S. M. Gillespie, D. Y. Duveau, A. M. Michalowski, P. Shinn, R. Guha, M. Ferrer, C. Klumpp-Thomas, S. Michael, C. McKnight, P. Minhas, Z. Itkin, E. H. Raabe, L. Chen, R. Ghanem, A. C. Geraghty, L. Ni, K. I. Andreasson, N. A. Vitanza, K. E.Warren, C. J. Thomas, M. Monje, Therapeutic strategies for diffuse midline glioma from high-throughput combination drug screening. Sci. Transl. Med. 11, (2019).
[2] T. M. Yamamoto, A. McMellen, Z. L. Watson, J. Aguilera, R. Ferguson, E. Nurmemmedov, T. Thakar, G. L. Moldovan, H. Kim, D. M. Cittelly, A. M. Joglar, E. P. Brennecke, H. Wilson, K. Behbakht, M. J. Sikora, B. G. Bitler, Activation of Wnt signaling promotes olaparib resistant ovarian cancer. Mol. Carcinog. 58, 1770 - 1782 (2019).
PROTOCOL TABLE (as described by Inglese J, Shamu CE and Guy RK. 2007)
SEQUENCE No. (e.g., 1, 2, 3, etc.); […] (e.g., Cells, Incubation, Reagent, etc.); VALUE; DESCRIPTION.
1; Compounds; 20nL; 1536-well white tissue culture-treated plates.
2; Cells; 5 uL; PEO1, PEO4, and PEO1/OlaR cells at 600 cells per well.
3; Incubation; 96 hr; 37C, 95% humidity, 5% CO2.
4; Reagent; 3 uL; CellTiter-Glo (Promega).
5; Incubation; 15 min; room temperature.
6; Detection; Luminescence, PHERAstar (BMG Labtech) plate reader.
NOTES (numbers refer to Sequence numbers above)
1. MIPE 5.0 compounds were acoustically dispensed by Echo Acoustic Liquid Handler (Beckman Coulter Life Sciences). Each compound was plated at an 11-point concentration range with 1:3 dilution. Bortezomib, a proteasome inhibitor (final concentration, 20 uM), was used as a positive.
2. PEO1, PEO4, and PEO1/OlaR were trypsinized and dispensed in 5 uLof growth medium using a Multidrop Combi dispenser at a density of 600 cells per well to allow compounds to be present during the exponential growth phase.
3. Plates were incubated for 96 hours at standard incubator conditions and covered by a stainless steel gasketed lid to prevent evaporation.
4. Three microliters of CellTiter-Glo (Promega) were added to each well.
5. Plates were incubated at room temperature for 15 min with a stainless-steel lid in place.
6. Luminescence readings were taken using PHERAstar (BMG Labtech). […]
In general terms: Quantitative high-throughput screening tests each substance at several concentrations.
Take `COc1cc(N2CCC(N3CCN(C)CC3)CC2)ccc1Nc1ncc(Cl)c(Nc2ccccc2P(C)(C)=O)n1`: the AC50 (commonly the concentration giving half of the maximal activity seen) was 549 nM [falling, full curve].
In the case of `CCN(CC)CCCC[C@H](NC(=O)[C@H](CC(C)C)NC(=O)[C@H](C)NC(=O)[C@H](Cc1ccccc1)NC(=O)c1ccc(C(C)(C)C)cc1)C(=O)N[C@@H](CO)C(=O)OC`, the concentration at half-maximal activity (AC50) is 309 nM [rising, full curve, poor fit].
For `COc1ccc(S(=O)(=O)Nc2cc(-c3csc(C#N)c3)ccc2C)cc1`, the AC50 was 49 nM [falling, full curve].
As to `CCNC(=O)Nc1ccc(Oc2ncnc(N)c2/C=N/OC)cc1Cl`, the AC50 was 24500 nM [falling, single point].
The same measure, in the same setting: the value for `O=C1NC(=O)C(c2cnc3ccccn23)=C1c1cn2c3c(cccc13)CN(C(=O)N1CCOCC1)CC2` was 436 nM [falling, full curve].
For the compound `CN1CCN(c2cc(C(=O)Nc3ccc4c(c3)-c3c(c(C(N)=O)nn3-c3ccc(F)cc3)CC4)c(Cl)cn2)CC1`, the AC50 is 24500 nM [falling, single point].
Still for that read-out and setting: the value for `O=C(/C=C/c1cccc(S(=O)(=O)Nc2ccccc2)c1)NO` was 2190 nM [falling, full curve]; that for `CN1CCN(c2ccc(C(=O)Nc3n[nH]c4ccc(Cc5cc(F)cc(F)c5)cc34)c(NC3CCOCC3)c2)CC1` was 5490 nM [falling, full curve].
On the same count and under the same terms, the value for `O=C(/C=C/C#Cc1cccc(NS(=O)(=O)c2ccccc2)c1)NO` was 6010 nM [falling, partial curve, poor fit]; that for `COc1cc(N2CCN(C)CC2)ccc1Nc1ncc2c(n1)N(C)c1ccccc1C(=O)N2` was 21900 nM [falling, partial curve, poor fit].
For `c1cc(Nc2cc(C3CC3)[nH]n2)nc(Nc2ccc3nc[nH]c3c2)n1`, the AC50 was 219 nM [falling, full curve].
For `CC(=O)O[C@H]1C(=O)[C@@]2(C)C([C@H](OC(=O)c3ccccc3)[C@]3(O)C[C@H](OC(=O)[C@H](O)[C@@H](NC(=O)c4ccccc4)c4ccccc4)C(C)=C1C3(C)C)[C@]1(OC(C)=O)CO[C@@H]1C[C@@H]2O` (stereo partly specified), the AC50 was 7.8 nM [falling, full curve].
`N#Cc1ccc(-c2c(-c3ncn[nH]3)sc(N3CCOCC3)c2C#N)c(F)c1`: the AC50 was 5490 nM [falling, partial curve].
On the same count and under the same terms, to `CC(C)Oc1ccc(C(=O)N[C@H](CNC(=O)CN(C)C)Cc2ccc(-c3cn4cccc([C@H](C)O)c4n3)cc2)cc1Cl` belongs 110 nM [falling, full curve, poor fit].
Still for that read-out and setting: to `CC(C)C[C@H](NC(=O)CNC(=O)c1cc(Cl)ccc1Cl)B(O)O` belongs 87.1 nM [falling, full curve].
Still for that read-out and setting: to `COc1ccc(S(=O)(=O)N(C(C)=O)c2ccccc2/C=C/c2cc[n+]([O-])cc2)cc1` belongs 977 nM [falling, full curve]; to `Cc1ccc(Nc2nnc(Cc3ccncc3)c3ccccc23)cc1Br`, 7760 nM [falling, partial curve, poor fit]; to `CCCCc1oc2ccccc2c1C(=O)c1cc(I)c(OCCN(CC)CC)c(I)c1`, 24500 nM [falling, single point].
`C[C@H]1c2cccc(O)c2C(O)=C2C(=O)[C@]3(O)C(O)=C(C(N)=O)C(=O)[C@@H](N(C)C)[C@@H]3[C@@H](O)[C@@H]21`: the AC50 was 24.5 µM [falling, single point] and 19.5 µM [falling, single point].
As to `N=c1ccn2c(n1)O[C@H]1[C@H](O)[C@@H](CO)O[C@H]12`, the AC50 is 195 nM [falling, full curve].
Same read-out and setting: the value for `COc1cccc2c1C(=O)c1c(O)c3c(c(O)c1C2=O)C[C@@](O)(C(=O)CO)C[C@@H]3O[C@H]1C[C@H](N)[C@H](O)[C@H](C)O1` was 219 nM [falling, full curve].

The same experiment, now with this note: PEO1/OlaR viability, CellTiter-Glo luminescence, 96 h; measured here: PEO4 viability.
`COc1cc(N2CCC(N3CCN(C)CC3)CC2)ccc1Nc1ncc(Cl)c(Nc2ccccc2P(C)(C)=O)n1`: the AC50 was 490 nM [falling, full curve].
On to `COc1ccc(S(=O)(=O)Nc2cc(-c3csc(C#N)c3)ccc2C)cc1`, for which the AC50 was 49 nM [falling, full curve].
As to `O=C1NC(=O)C(c2cnc3ccccn23)=C1c1cn2c3c(cccc13)CN(C(=O)N1CCOCC1)CC2`, the AC50 is 347 nM [falling, full curve, poor fit].
On the same count and under the same terms, to `CN1CCN(c2cc(C(=O)Nc3ccc4c(c3)-c3c(c(C(N)=O)nn3-c3ccc(F)cc3)CC4)c(Cl)cn2)CC1` belongs 19500 nM [falling, single point].
With `N[C@H](CSC(c1ccccc1)(c1ccccc1)c1ccccc1)C(=O)O`, the AC50 was 15500 nM [falling, partial curve, poor fit].
With `O=C(/C=C/c1cccc(S(=O)(=O)Nc2ccccc2)c1)NO`, the concentration at half-maximal activity (AC50) was 2750 nM [falling, partial curve].
`CN1CCN(c2ccc(C(=O)Nc3n[nH]c4ccc(Cc5cc(F)cc(F)c5)cc34)c(NC3CCOCC3)c2)CC1`: the AC50 was 3090 nM [falling, full curve].
For the compound `O=C(/C=C/C#Cc1cccc(NS(=O)(=O)c2ccccc2)c1)NO`, the AC50 is 8480 nM [falling, partial curve].
`COc1cc(N2CCN(C)CC2)ccc1Nc1ncc2c(n1)N(C)c1ccccc1C(=O)N2`: the AC50 is 13800 nM [falling, partial curve].
On to `c1cc(Nc2cc(C3CC3)[nH]n2)nc(Nc2ccc3nc[nH]c3c2)n1`, for which the AC50 was 69.2 nM [falling, full curve].
Take `CC(=O)O[C@H]1C(=O)[C@@]2(C)C([C@H](OC(=O)c3ccccc3)[C@]3(O)C[C@H](OC(=O)[C@H](O)[C@@H](NC(=O)c4ccccc4)c4ccccc4)C(C)=C1C3(C)C)[C@]1(OC(C)=O)CO[C@@H]1C[C@@H]2O` (stereo partly specified): the AC50 was 8.7 nM [falling, full curve].
On the same count and under the same terms, to `N#Cc1ccc(-c2c(-c3ncn[nH]3)sc(N3CCOCC3)c2C#N)c(F)c1` belongs 4360 nM [falling, partial curve]; to `CC(C)Oc1ccc(C(=O)N[C@H](CNC(=O)CN(C)C)Cc2ccc(-c3cn4cccc([C@H](C)O)c4n3)cc2)cc1Cl`, 61.6 nM [falling, full curve, poor fit].
As for `CC(C)C[C@H](NC(=O)CNC(=O)c1cc(Cl)ccc1Cl)B(O)O`, the AC50 is 54.9 nM [falling, full curve].
For the compound `COc1ccc(S(=O)(=O)N(C(C)=O)c2ccccc2/C=C/c2cc[n+]([O-])cc2)cc1`, the AC50 is 977 nM [falling, full curve].
On the same count and under the same terms, the value for `Cc1ccc(Nc2nnc(Cc3ccncc3)c3ccccc23)cc1Br` was 2750 nM [falling, partial curve].
On the same count and under the same terms, the value for `CCCCc1oc2ccccc2c1C(=O)c1cc(I)c(OCCN(CC)CC)c(I)c1` was 17400 nM [falling, single point]; that for `C[C@H]1c2cccc(O)c2C(O)=C2C(=O)[C@]3(O)C(O)=C(C(N)=O)C(=O)[C@@H](N(C)C)[C@@H]3[C@@H](O)[C@@H]21` was 15.5 µM [falling, single point] and 13.8 µM [falling, single point]; that for `N=c1ccn2c(n1)O[C@H]1[C@H](O)[C@@H](CO)O[C@H]12` was 436 nM [falling, partial curve].
On to `COc1cccc2c1C(=O)c1c(O)c3c(c(O)c1C2=O)C[C@@](O)(C(=O)CO)C[C@@H]3O[C@H]1C[C@H](N)[C@H](O)[C@H](C)O1`, for which the AC50 was 389 nM [falling, full curve].
